# ± gives the standard deviation of the averaged measurements. This is one part of the list.
# System: PfAP2-LT AP2 domain (GST-tagged)
# Test: gcPBM binding intensity (ln(normalized median fluorescence intensity)); higher = stronger DNA binding
# In short: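 The highest Masliner-normalised natural-log median intensity across replicate spots of either probe orientation is reported as binding intensity. GST-tagged P. falciparum DNA-binding domains expressed in E. coli were applied for 1 h to an Agilent 4 × 180k array of primer-extended double-stranded 36-bp intergenic genomic probes plus negative controls, and bound protein was detected with Alexa488 anti-GST antibody and scanned at 488 nm.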
row,Sequence,gcPBM binding intensity (ln)
1,ATATATATATATGTATGTACGTATGTATTTACTGCT [XGTACX_site3839],9.57 ± 0.2
2,ATTGTGTTAATAAAATGTACATTTTCTCTACATTAA [XGTACX_site2766],8.85 ± 0.38
3,TATTTATAATTATAATAATATATATATATATATATA [TGCATGCA_negctrl_site173],8.6 ± 0.3
4,TTTGAATAAAAACAAAAAATTAAATTAAATTAAATA [CACACA_negctrl_site312],8.12 ± 0.45
5,ATTAAAAAAAATATATATGTATAAAACAAGCAAAAT [XGTACX_negctrl_site474],8.89 ± 0.47
6,ATAAAAAAAAATAACACACAGACATAAGAATAAATA [CACACA_site4162],9.25 ± 0.44
7,TAGCCATTTTTATATTGTACTTATATAATCACATTT [XGTACX_site4407],8.8 ± 0.45
8,ATATAAGAAAAGCACACACACACAAAAAAAAAAAAA [CACACA_site2827],10.1 ± 0.42
9,GACCACTTTAGGATTTGTACACATATTATATATGCA [XGTACX_site6579],9.05 ± 0.41
10,ATTAAAAAAATTGGCACACATAAAAATATATAAAAA [CACACA_site2748],8.86 ± 0.49
11,AACAGATATGAATAGAAAAAAAAAAATGGCCCATAT [TGCATGCA_negctrl_site443],8.65 ± 0.47
12,GTTTTTAATGTTTTGACATGCAATATTAAAAATAAT [TGCATGCA_site174],8.37 ± 0.43
13,TGAAAAAAAAAATACACACACGAGTTGTTATACATA [CACACA_site7486],9.09 ± 0.43
14,TTTTGATAGAAGTGTTCTAGGAATTCAACTGTAATA [GTGCAC_negctrl_site585],8.44 ± 0.46
15,TATAATGATAATAATAGTACACATTAGAACGGGAGG [XGTACX_site2563],9.03 ± 0.42
16,TATAATAATAAAAACACACACGTTGATTGTATTAGC [CACACA_site5336],9.13 ± 0.33
17,TCTTTTTTTTATTATATCATTGAAATGTTAAAACGA [XGTACX_negctrl_site473],8.27 ± 0.41
18,CCTATTATTTCTAAAACACACAAAAATATAAAAGAA [CACACA_site2708],8.67 ± 0.49
19,ATAATATTATTTAAAAGTACTAACAAAAGAATATTA [XGTACX_site4989],8.45 ± 0.52
20,GCAATTTTTTTTAAGAGTACTAATATATTATAGTGG [XGTACX_site7316],8.45 ± 0.34
21,TTTTTTTAATAGTGTGCACACAATATACAGAAAAAA [CACACA_site8399],9.17 ± 0.44
22,AAAAAGTGACTCCTTACACACTTTACATAATTTAGG [CACACA_site8176],8.82 ± 0.4

row,Sequence,gcPBM binding intensity (ln)
1,ATATACATATATATATGTACTTATTTATTTATTTAT [XGTACX_site2532],8.95 ± 0.45
2,ATATATATATATATATGTACATATGTTTGTTTCCGC [XGTACX_site5167],9.97 ± 0.24
3,TTTTTTTTCATTTTATGTACACATAATTTAATATAT [XGTACX_site5768],8.74 ± 0.67
4,CATACATACATACATACATGCATACATACATACATA [TGCATGCA_site218],9.19 ± 0.28
5,CATAATTTAAAAAAGGTGCAAAATGGATAATATATA [GTGCAC_site9657],8.96 ± 0.47
6,TAATTTCTTTAGGGGGTGCTTTTATAGTTTTTATTA,9.615 ± 0.05
7,CTGTCTGCAGATATGGTGCATTTGTAAGATCTTACA [GTGCAC_site9870],8.88 ± 0.45
8,TTCATAAAATGTGTCTGTACGTAAATGTATTACACT [XGTACX_site3179],8.96 ± 0.4
9,TTTATATTTATGATGGGTACACAAAATTTTACCCAT [XGTACX_site1504],8.67 ± 0.47
10,AATGTATAAATCCATACACACATAAATTTTAATAAT [CACACA_site2363],9.09 ± 0.42
11,AAAAAAATTAAAAATTAAAATTAAAAATAATATATA [GTGCAC_negctrl_site466],8.22 ± 0.68
12,TATATATATGAACAATGTACGTATAATATTTTTATT [XGTACX_site7561],8.72 ± 0.44
13,GATCTATACTATAATACACACATTTGATGAATGTAA [CACACA_site6163],8.86 ± 0.29
14,AACATTATATATTGCAGTACTCCCATATGTTGATAA [XGTACX_site3119],8.82 ± 0.39
15,ATATATATATATATATGTACACATAAAAAGAAAGAA [XGTACX_site1603],9.27 ± 0.42
16,TTTAGTTGTGAGAATTGTACATATTTTCCTTTTACC [XGTACX_site7291],8.69 ± 0.52
17,TATATACCTATATACACACACATATATTATAGATAT [CACACA_site6266],9.32 ± 0.34
18,ATTAATAAAAAATTTTAAAAAATAAATAAAATAAAA [TGCATGCA_negctrl_site113],8.25 ± 0.69
19,ATAATAAATAAAATAACACACATATATAAATATATA [CACACA_site170],8.91 ± 0.42
20,ATTTTTATTCAGTTCACACACGCTTTAATATTATAT [CACACA_site3465],9.29 ± 0.38
21,ATATATATTTAACAATGTACTTATTCAGAGAATAAT [XGTACX_site574],8.52 ± 0.45
22,AAAATATTTTTATAATGTACATATAGTTGTATTTGT [XGTACX_site8724],8.81 ± 0.39

# Source: the supplement of paper PMC11417369
